The supplement of paper PMC8728848
This is one part of the list.

Experiments:
Experiment in all cases: glycan array binding signal (z-score within array); higher = stronger binding
Settings in all cases: glycan notation: IUPAC condensed, linker removed
[1] = molecular target: Neu5Ac(a2-6)Gal(b1-4)GlcNAc(b1-6)[Gal(b1-3)GlcNAc(b1-3)]Gal(b1-4)Glc
Procedure, shortened: (§1)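 Negative Z-scores can be read as non-binding. The Z-score is calculated within each array and then averaged across arrays of one protein sequence at different concentrations or buffers and across linkers. Arrays, 3228 in all, were curated from the Consortium for Functional Glycomics database and kept only where the protein sequence was available.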

[2] = molecular target: Neu5Ac(a2-6)Gal(b1-4)GlcNAc(b1-6)[Gal(b1-3)]GalNAc
Procedure, shortened: as §1

[3] = molecular target: Neu5Ac(a2-6)Gal(b1-4)GlcNAc6S
Procedure, shortened: as §1

[4] = molecular target: Neu5Ac(a2-6)GalNAc
Procedure, shortened: as §1

[5] = molecular target: Neu5Ac(a2-6)GalNAc(b1-4)GlcNAc
Procedure, shortened: as §1

[6] = molecular target: Neu5Ac(a2-6)GalNAc(b1-4)GlcNAc6S
Procedure, shortened: as §1

[7] = molecular target: Neu5Ac(a2-6)GlcNAc(b1-4)GlcNAc
Procedure, shortened: as §1

[8] = molecular target: Neu5Ac(a2-6)GlcNAc(b1-4)GlcNAc(b1-4)GlcNAc
Procedure, shortened: as §1

[9] = molecular target: Neu5Ac(a2-8)Neu5Ac
Procedure, shortened: as §1

[10] = molecular target: Neu5Ac(a2-8)Neu5Ac(a2-3)Gal(b1-3)GalNAc(b1-4)[Neu5Ac(a2-3)]Gal(b1-4)Glc
Procedure, shortened: as §1

[11] = molecular target: Neu5Ac(a2-8)Neu5Ac(a2-3)Gal(b1-3)GalNAc(b1-4)[Neu5Ac(a2-8)Neu5Ac(a2-3)]Gal(b1-4)Glc
Procedure, shortened: as §1

[12] = molecular target: Neu5Ac(a2-8)Neu5Ac(a2-3)Gal(b1-4)Glc
Procedure, shortened: as §1

[13] = molecular target: Neu5Ac(a2-8)Neu5Ac(a2-3)Gal(b1-4)GlcNAc
Procedure, shortened: as §1

[14] = molecular target: Neu5Ac(a2-8)Neu5Ac(a2-3)[Gal(b1-3)GalNAc(b1-4)]Gal(b1-4)Glc
Procedure, shortened: as §1

[15] = molecular target: Neu5Ac(a2-8)Neu5Ac(a2-3)[GalNAc(b1-4)]Gal(b1-4)Glc
Procedure, shortened: as §1

[16] = molecular target: Neu5Ac(a2-8)Neu5Ac(a2-8)Neu5Ac
Procedure, shortened: as §1

[17] = molecular target: Neu5Ac(a2-8)Neu5Ac(a2-8)Neu5Ac(a2-3)Gal(b1-4)Glc
Procedure, shortened: as §1

[18] = molecular target: Neu5Ac(a2-8)Neu5Ac(a2-8)Neu5Ac(a2-3)[Gal(b1-3)GalNAc(b1-4)]Gal(b1-4)Glc
Procedure, shortened: as §1

[19] = molecular target: Neu5Ac(a2-8)Neu5Ac(a2-8)Neu5Ac(a2-3)[GalNAc(b1-4)]Gal(b1-4)Glc
Procedure, shortened: as §1

[20] = molecular target: Neu5Ac(a2-8)Neu5Ac(a2-8)Neu5Ac(a2-8)Neu5Ac(a2-3)[GalNAc(b1-4)]Gal(b1-4)Glc
Procedure, shortened: as §1

[21] = molecular target: Neu5Ac(a2-8)Neu5Gc(a2-3)Gal(b1-4)GlcNAc
Procedure, shortened: as §1

[22] = molecular target: Neu5Ac(b2-6)Gal(b1-4)GlcNAc
Procedure, shortened: as §1

[23] = molecular target: Neu5Ac(b2-6)GalNAc
Procedure, shortened: as §1

[24] = molecular target: Neu5Ac9Ac(a2-3)Gal(b1-3)GlcNAc
Procedure, shortened: as §1

[25] = molecular target: Neu5Ac9Ac(a2-3)Gal(b1-4)GlcNAc
Procedure, shortened: as §1

[26] = molecular target: Neu5Ac9Ac(a2-6)Gal(b1-4)GlcNAc
Procedure, shortened: as §1

[27] = molecular target: Neu5Gc(a2-3)Gal(b1-3)GlcNAc
Procedure, shortened: as §1

[28] = molecular target: Neu5Gc(a2-3)Gal(b1-3)[Fuc(a1-4)]GlcNAc
Procedure, shortened: as §1

[29] = molecular target: Neu5Gc(a2-3)Gal(b1-4)Glc
Procedure, shortened: as §1

[30] = molecular target: Neu5Gc(a2-3)Gal(b1-4)GlcNAc
Procedure, shortened: as §1

[31] = molecular target: Neu5Gc(a2-3)Gal(b1-4)GlcNAc(b1-3)Gal(b1-4)GlcNAc(b1-2)Man(a1-3)[Neu5Gc(a2-3)Gal(b1-4)GlcNAc(b1-3)Gal(b1-4)GlcNAc(b1-2)Man(a1-6)]Man(b1-4)GlcNAc(b1-4)GlcNAc
Procedure, shortened: as §1

[32] = molecular target: Neu5Gc(a2-3)Gal(b1-4)[Fuc(a1-3)]GlcNAc
Procedure, shortened: as §1

[33] = molecular target: Neu5Gc(a2-6)Gal(b1-4)GlcNAc
Procedure, shortened: as §1

[34] = molecular target: Neu5Gc(a2-6)GalNAc
Procedure, shortened: as §1

[35] = molecular target: Neu5Gc(a2-8)Neu5Ac(a2-3)Gal(b1-4)GlcNAc
Procedure, shortened: as §1

[36] = molecular target: Neu5Gc(a2-8)Neu5Gc(a2-3)Gal(b1-4)GlcNAc
Procedure, shortened: as §1

[37] = molecular target: Neu5Gc(a2-8)Neu5Gc(a2-3)Gal(b1-4)GlcNAc(b1-3)Gal(b1-4)GlcNAc
Procedure, shortened: as §1

[38] = molecular target: Neu5Gc(a2-8)Neu5Gc(a2-6)Gal(b1-4)GlcNAc
Procedure, shortened: as §1

[39] = molecular target: Neu5Gc(b2-6)Gal(b1-4)GlcNAc
Procedure, shortened: as §1

B1: SSR1 (Sclerotium rolfsii), A0A0M3KL30 (protein)
chain: TYKITVRVYQTNPDAFFHPVEKTVWKYANGGTWTITDDQHVLTMGGSGTSGTLRFHADNGESFTATFGVHNYKRWCDIVTNLAADETGMVINQQYYSQKNREEARERQLSNYQVKNAKGRNFQIVYTEAEGNDLHANLIIG
[1]
  glycan array binding signal (z-score): -0.344
[2]
  glycan array binding signal (z-score): 1.07
[3]
  glycan array binding signal (z-score): -0.342
[4]
  glycan array binding signal (z-score): -0.351
[5]
  glycan array binding signal (z-score): -0.351
[6]
  glycan array binding signal (z-score): -0.342
[7]
  glycan array binding signal (z-score): -0.326
[8]
  glycan array binding signal (z-score): -0.352
[9]
  glycan array binding signal (z-score): -0.338
[10]
  glycan array binding signal (z-score): -0.34
[11]
  glycan array binding signal (z-score): -0.293
[12]
  glycan array binding signal (z-score): -0.338
[13]
  glycan array binding signal (z-score): -0.35
[14]
  glycan array binding signal (z-score): -0.352
[15]
  glycan array binding signal (z-score): -0.337
[16]
  glycan array binding signal (z-score): -0.329
[17]
  glycan array binding signal (z-score): -0.331
[18]
  glycan array binding signal (z-score): -0.327
[19]
  glycan array binding signal (z-score): -0.32
[20]
  glycan array binding signal (z-score): -0.334
[21]
  glycan array binding signal (z-score): -0.342
[22]
  glycan array binding signal (z-score): -0.34
[23]
  glycan array binding signal (z-score): -0.328
[24]
  glycan array binding signal (z-score): -0.343
[25]
  glycan array binding signal (z-score): -0.27
[26]
  glycan array binding signal (z-score): -0.321
[27]
  glycan array binding signal (z-score): -0.329
[28]
  glycan array binding signal (z-score): -0.332
[29]
  glycan array binding signal (z-score): -0.278
[30]
  glycan array binding signal (z-score): -0.352
[31]
  glycan array binding signal (z-score): -0.334
[32]
  glycan array binding signal (z-score): -0.316
[33]
  glycan array binding signal (z-score): -0.329
[34]
  glycan array binding signal (z-score): -0.318
[35]
  glycan array binding signal (z-score): -0.34
[36]
  glycan array binding signal (z-score): -0.333
[37]
  glycan array binding signal (z-score): -0.344
[38]
  glycan array binding signal (z-score): -0.349
[39]
  glycan array binding signal (z-score): -0.308
